Screen size: about 230,000 compounds; about 3,600 (1.6%) were called active. The inconclusive results got no clear call from the source; some entries with a clear call stand among them for comparison. Calls come from the whole dose curve; as a rule, active = well fitted inhibition curve with a large enough effect (not every such curve was filed as active); inconclusive = small, poorly fitted or top-dose-only effect, or another doubt; inactive = no such curve, though single readings can be large or run the other way. Potencies of inconclusive entries are doubtful fits and often do not repeat.
biological target: Lysine-specific demethylase 4E (Homo sapiens) (UniProt B2RXH2); assay: qHTS Assay for Inhibitors of Human Jumonji Domain Containing 2E (JMJD2E); conditions: JMJD2E catalytic domain, FDH-coupled NADH fluorescence (FDH is formaldehyde dehydrogenase); series mostly up to 57.1 µM; activity change, negative = inhibition: at the top concentration
Chain of UniProt B2RXH2 (B2RXH2 whole entry, looked up, the tested form may be a part): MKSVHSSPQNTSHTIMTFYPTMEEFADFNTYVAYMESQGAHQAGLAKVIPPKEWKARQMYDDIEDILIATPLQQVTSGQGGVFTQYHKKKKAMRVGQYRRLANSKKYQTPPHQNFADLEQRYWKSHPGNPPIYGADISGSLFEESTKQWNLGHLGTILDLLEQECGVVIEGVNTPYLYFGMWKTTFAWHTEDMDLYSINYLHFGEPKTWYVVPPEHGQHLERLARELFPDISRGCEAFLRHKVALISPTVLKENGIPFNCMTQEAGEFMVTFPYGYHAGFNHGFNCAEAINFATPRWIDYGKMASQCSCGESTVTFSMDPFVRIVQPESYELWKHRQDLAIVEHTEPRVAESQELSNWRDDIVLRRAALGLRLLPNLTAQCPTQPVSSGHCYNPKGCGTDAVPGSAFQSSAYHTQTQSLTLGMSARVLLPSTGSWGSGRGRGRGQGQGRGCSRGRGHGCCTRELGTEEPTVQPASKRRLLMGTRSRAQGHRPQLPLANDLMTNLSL
Text: Assay Provider: Structural Genomics Consortium [SGC] Screening Center PI: Austin, C.P. Screening Center: NIH Chemical Genomics Center [NCGC] The fine interplay among methylation states of several lysine residues on the tails of histone proteins is a major determinant of the transcriptional state of the associated DNA coding regions and is commonly referred to as the histone code. Histone lysine demethylases catalyze the removal of methyl groups from methylated lysine sidechains on histones H3 and H4, thus antagonizing the reactions catalyzed by histone lysine methyltransferases. […] In search for novel inhibitors of JMJD2E demethylase, a member of the largest set of histone demethylases belonging to the Fe(II) and 2-oxoglutarate oxygenase (2OG) superfamily, we performed a quantitative high-throughput screen (Inglese 2006) by using an assay which utilizes a trimethylated peptide substrate corresponding to a fragment of histone H3 (sequence ARKme3STGGK) with detection of the formaldehyde co-product in real time by a formaldehyde dehydrogenase (FDH) coupled reaction. FDH catalyzes oxidation of formaldehyde to formic acid with the concomitant reduction of the non-fluorescent beta-nicotinamide adenine dinucleotide hydrate (NAD+) cofactor to the fluorescent NADH co-product. References: Inglese, J., Auld, D., Jadhav, A., Johnson, R., Simeonov, A., Yasgar, A., Zheng, W. and Austin, C. Proc Natl Acad Sci USA 2006, 103, 11473-11478. N. R. Rose, S. S. Ng, J. Mecinovic, B. M. Lienard, S. H. Bello, Z. Sun, M. A. McDonough, U. Oppermann and C. J. Schofield, J Med Chem, 2008, 51, 7053-7056. Sakurai, M., Rose, N., Schultz, L., Quinn, A., Jadhav, A., Ng, S., Oppermann, U., Schofield, C.J. and Simeonov, A. Mol BioSystems 2009, in press. S. Michael, D. Auld, C. Klumpp, A. Jadhav, W. Zheng, N. Thorne, C. Austin, J. Inglese and A. Simeonov, Assay Drug Dev Technol, 2008, 6, 637-657.
Reagents and Controls: Ferrous ammonium sulfate, (+)-sodium L-ascorbate, beta-nicotinamide adenine dinucleotide hydrate (NAD+), Tween-20, formaldehyde dehydrogenase from P. putida (FDH), and disodium 2-oxoglutarate were from Sigma (St. Louis, MO). Black solid-bottom 384-well or 1,536-well assay plates were from Greiner Bio-One (Monroe, NC). Enzyme was supplied by Prof. Udo Oppermann, SGC-Oxford. The catalytic domain of human JMJD2E (residues 1-337) was produced as an N-terminally His6-tagged protein in E. coli, and purified by Ni-affinity chromatography and size-exclusion chromatography, and stored in HEPES 50 mM/ NaCl 500 mM pH 7.5, as reported in Rose 2008. The trimethylated histone peptide substrate ARK(me3)STGGK was synthesized and HPLC-purified by the Tufts University Core Facility (Boston, MA). Substrate solution (Sakurai 2009) contained 50 uM ARK(me3)STGGK, 0.00025 U/uL FDH, 50 uM 2-oxoglutarate, 250 uM NAD+, 1 mM ascorbate, and 10 uM ferrous ammonium sulfate. Controls and plate map: Buffer (150 mM HEPES pH 7.5 containing 0.01% Tween-20) in columns 3 and 4 as negative control (no enzyme) and 100 nM JMJD2E final concentration in columns 1,2, and 5-48. Assay Steps: Enzyme and buffer solutions (3 uL) were dispensed into a 1,536-well Greiner black solid-bottom assay plate. The library compounds (23 nL) were transferred using a Kalypsys pintool equipped with 1,536-pin array. The plate was incubated at room temperature (15 min), and then a 1 uL aliquot of substrate solution was added to initiate the reaction. The plate was transferred to ViewLux imager where an initial reading using standard UV optics (Ex 340 nm, Em 450 nm) was obtained. The plate was then removed from the reader, incubated for 30 minutes at room temperature, and returned to the reader for a second fluorescence reading. A fully automated robotic screening system (Kalypsys Inc, San diego, CA) was used to perform the above steps as described previously (Michael 2008). […]
Note: nearly all actives have a fitted effect of over 50% in size.
Potency is the fitted concentration of half-maximal effect; tags give direction and shape of the fitted curve.
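Throughout, for activity change, negative = inhibition: 0% = wells with enzyme and -100% = buffer wells without enzyme.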

SMILES	Potency	activity change, negative = inhibition
Cc1ccc(-c2cc(C(=O)N/N=C/c3c(C)nn(-c4ccccc4)c3C)n[nH]2)s1	inconclusive: 35.5 µM [inhibitor, single point]	–
Cc1cccc(N2CCN(C(=O)Cc3c(C(=O)O)[nH]c4ccc(Cl)cc34)CC2)c1C	–	inactive: -4.29%
CN(C)Cc1c(O)ccc2ccccc12	inconclusive: 35.5 µM [inhibitor, partial curve]	–
Cc1ccc2c(CN3CCN(CCO)CC3)cc(=O)oc2c1C	inconclusive: 31.6 µM [inhibitor, single point]	–
Oc1ccc(/C=C/c2ccc3ccccc3n2)cc1	inconclusive: 28.2 µM [inhibitor, partial curve]	–
CCOC(=O)CCc1c(C)nc2cc(C3CCCN(C(=O)OC(C)(C)C)C3)[nH]n2c1=O (configuration not stated)	inconclusive: 28.2 µM [inhibitor, partial curve]	–
Cn1nc(C(F)(F)F)c(-c2ccc(Br)cc2)c1NC(=O)c1nccnc1C(=O)O	inconclusive: 31.6 µM [inhibitor, partial curve]	–
O=C(CSc1ccccc1)Nc1ccccc1C(=O)O	–	inactive: -20.2%
O=c1c2ccccc2nc(-c2ccccc2)n1/N=C/c1ccc([N+](=O)[O-])cc1	–	inactive: 2.96%
Cc1cc(Br)ccc1SCC(=O)OC/C(O)=C(\C#N)c1nc2ccccc2[nH]1	inconclusive: 35.5 µM [inhibitor, single point]	–
CC1=CC(c2ccc(Cl)cc2)n2nc(NS(=O)(=O)c3ccc(C)cc3)nc2N1 (configuration not stated)	inconclusive: 31.6 µM [inhibitor, partial curve]	–
CCCNc1[nH]c(=O)n(C)c(=O)c1N=O	–	inactive: -2.16%
O=Cc1cn(CC(=O)N2CCCc3ccccc32)c2ccccc12	–	inactive: -0.0286%
CC(OC(=O)c1snc(C(=O)NC2CCCCC2)c1N)C(=O)NC1CCCCC1 (configuration not stated)	inconclusive: 3.55 µM [inhibitor, full curve]	–
COC(=O)c1cccc(NC(=O)CCSc2ccc(Cl)cc2)c1C	inconclusive: 25.1 µM [inhibitor, partial curve]	–
COc1cc2nc(/C=C/c3cc(OC)c(OC)c(OC)c3)sc2cc1SC	inconclusive: 14.1 µM [inhibitor, partial curve]	–
CSc1nc(SCC(N)=O)c2c3c(sc2n1)CN(C)CC3	inconclusive: 31.6 µM [inhibitor, partial curve]	–
CC(C1OC(C)(C)C(O)C1O)C1CC[C@@]2(C)C3=CCC4C(C)(C)C(=O)CC[C@]4(C)C3CC[C@@]12C (some centres not stated)	–	inactive: -14.3%
CCOCCCNC(=S)N1C2CCC1CC(NC(=O)Nc1ccc(C(=O)OCC)cc1)C2 (configuration not stated)	inconclusive: 35.5 µM [inhibitor, single point]	–
N/C(=N\OS(=O)(=O)c1ccccc1)c1cccnc1	inconclusive: 25.1 µM [inhibitor, single point]	–
COc1ccc(COc2ccsc2C(=O)Nc2ccc(Cl)cc2)cc1	inconclusive: 28.2 µM [inhibitor, single point]	–

SMILES	Potency	activity change, negative = inhibition
O=C(CSc1nnc(CCCN2C(=O)c3cccc4cccc(c34)C2=O)n1-c1ccccc1)N1CCCCC1	inconclusive: 28.2 µM [inhibitor, partial curve]	–
Cc1nc(=O)c(-c2ccccc2)c(C)n1-c1ccc(O)c(C(=O)O)c1	inconclusive: 39.8 µM [inhibitor, single point]	–
O=C(O)CSc1nnc(CNc2ccc(F)cc2)n1-c1ccccc1	–	inactive: -1.76%
COc1ccc(C2C=C(c3ccccc3)Nc3nc(CCCO)nn32)cc1 (configuration not stated)	inconclusive: 31.6 µM [inhibitor, partial curve]	–
CCOc1ccc(C(=O)N/N=C/c2ccc(-c3ccc(S(=O)(=O)Nc4ncccn4)cc3)o2)cc1	inconclusive: 25.1 µM [inhibitor, partial curve]	–
Cc1ccc(-c2ccc(C(=O)O)[nH]2)cc1	inconclusive: 31.6 µM [inhibitor, single point]	–
COc1cc2nc(C3CCC3)n(NC(=O)COc3ccccc3)c(=O)c2cc1OC	inconclusive: 35.5 µM [inhibitor, single point]	–
CCOc1ccc(C(C)NC(=O)C2CCC2)cc1 (configuration not stated)	–	inactive: 9.88%
COc1ccc2c(c1)O/C(=C\c1sccc1C)C2=O	inconclusive: 39.8 µM [inhibitor, single point]	–
CCN(C(=O)c1coc(=O)c(Br)c1)c1ccc2c(c1)OCO2	inconclusive: 7.08 µM [inhibitor, partial curve]	–
Cc1ccccc1CSc1nc2n(n1)C(c1cccs1)C1=C(CCCC1=O)N2 (configuration not stated)	inconclusive: 35.5 µM [inhibitor, single point]	–
Cc1cc(-c2ccccc2C(=O)O)on1	inconclusive: 39.8 µM [inhibitor, single point]	–
CCOC(=O)c1cc(CC)sc1NC(=O)COc1ccc2c(C)cc(=O)oc2c1	inconclusive: 31.6 µM [inhibitor, partial curve]	–
CCOc1ccc(/C=N/NC(=O)c2nnn(-c3nonc3N)c2COc2ccc(F)cc2)cc1	inconclusive: 28.2 µM [inhibitor, partial curve]	–
COCCn1nnnc1C(c1cc2cc(C)ccc2[nH]c1=O)N1CCCCCC1 (configuration not stated)	inconclusive: 31.6 µM [inhibitor, partial curve]	–
CC(C)c1ccccc1NC(=S)NCc1nc2ccccc2[nH]1	inconclusive: 35.5 µM [inhibitor, single point]	–
Cc1ccc(-c2nnc(N3CCN(C(=O)COc4ccccc4)CC3)c3ccccc23)cc1	–	inactive: -7.74%
O=S(=O)(Nc1ccc2nc(-c3ccco3)[nH]c2c1)c1ccccc1	inconclusive: 28.2 µM [inhibitor, single point]	–
CCCCC1OC2(C)OC(=N)C1(C#N)C(C#N)(C#N)C2c1ccccc1 (configuration not stated)	inconclusive: 28.2 µM [inhibitor, partial curve]	–
S=c1[nH]ncn1/N=C/c1ccc(N2CCOCC2)cc1	inconclusive: 28.2 µM [inhibitor, single point]	–
CCOc1ccc(-n2nc3c(Cl)nnc(C)c3c2C)cc1	inconclusive: 35.5 µM [inhibitor, partial curve]	–

From PubChem BioAssay AID2147 (National Center for Advancing Translational Sciences (NCATS), 2009)
